Test results published in the supplement of paper PMC3334620.
Whole data set: some 33,000 sequences, median “E-score (-0.5 to 0.5)” near -0.035, cut for the highest 2% near 0.35. The list shows a part of the results.

Molecular target: T1, Pdr3 (UniProt P33200)
T1 sequence: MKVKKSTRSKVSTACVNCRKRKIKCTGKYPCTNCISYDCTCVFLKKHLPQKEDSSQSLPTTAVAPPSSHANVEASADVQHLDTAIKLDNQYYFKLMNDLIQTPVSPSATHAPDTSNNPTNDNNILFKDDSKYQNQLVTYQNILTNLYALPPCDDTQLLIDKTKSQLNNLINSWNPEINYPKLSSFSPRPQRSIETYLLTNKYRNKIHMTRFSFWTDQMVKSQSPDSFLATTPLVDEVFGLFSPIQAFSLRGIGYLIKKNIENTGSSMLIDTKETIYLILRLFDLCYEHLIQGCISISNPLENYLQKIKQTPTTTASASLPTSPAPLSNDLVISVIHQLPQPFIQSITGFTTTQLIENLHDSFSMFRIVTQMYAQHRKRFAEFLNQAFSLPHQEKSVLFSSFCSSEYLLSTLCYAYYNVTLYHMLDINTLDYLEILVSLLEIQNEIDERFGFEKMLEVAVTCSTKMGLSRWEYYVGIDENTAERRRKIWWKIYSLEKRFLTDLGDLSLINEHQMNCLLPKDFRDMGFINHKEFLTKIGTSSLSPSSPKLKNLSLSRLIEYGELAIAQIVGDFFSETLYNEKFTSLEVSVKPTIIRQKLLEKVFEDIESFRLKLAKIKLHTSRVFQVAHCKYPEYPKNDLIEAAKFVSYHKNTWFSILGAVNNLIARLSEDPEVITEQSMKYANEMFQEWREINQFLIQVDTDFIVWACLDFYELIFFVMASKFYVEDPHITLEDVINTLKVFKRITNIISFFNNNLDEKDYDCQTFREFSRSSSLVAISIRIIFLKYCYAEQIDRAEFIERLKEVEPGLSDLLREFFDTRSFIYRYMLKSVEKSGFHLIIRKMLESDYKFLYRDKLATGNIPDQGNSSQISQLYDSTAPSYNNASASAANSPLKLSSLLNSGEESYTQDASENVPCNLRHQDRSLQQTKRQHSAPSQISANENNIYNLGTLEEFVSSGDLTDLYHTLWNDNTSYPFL
Experiment: PBM E-score (8-mer binding enrichment) (E-score (-0.5 to 0.5)); higher = stronger / more preferred TF binding; most listed sequences are background and not binding sites
Details: protein concentration: 200 nM; construct: GST-full length
Procedure, shortened: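 Using PURExpress in vitro transcription/translation, GST-tagged yeast transcription factors were made in full-length or DNA-binding-domain form. These were applied at about 100-200 nM to double-stranded universal all-10-mer Agilent arrays, and bound protein was detected with fluorescent anti-GST. Scans were normalised with masliner before the Universal PBM Analysis Suite assigned E-scores to ungapped eight-base words pooled with their reverse complements.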

Row | Sequence | PBM E-score
1 | ACGGAAAG | 0.44
2 | GACGCTAC | 0.0166
3 | GGCCGCGA | -0.0197
4 | AGGAATTG | -0.00863
5 | CCGAGTAG | 0.221
6 | ATCCCGGG | 0.455
7 | CAGCTGAA | -0.0134
8 | TCTTCACA | -0.255
9 | CGCACAAC | -0.0378
10 | ATCTCCGA | 0.324
11 | ATGAAGCC | 0.179
12 | GTGATATA | -0.093
13 | CACCTAGC | -0.236
14 | ACTGAGTC | -0.0631
15 | ACTCAAAC | -0.132
16 | GACTTACC | 0.0346
17 | CTCAGCGC | 0.0917
18 | GGGGGGTA | -0.0904
19 | AACAATTG | -0.189
20 | AACGGCAT | 0.285
21 | ACAACAGT | -0.0384
22 | CAGATGAC | -0.223
23 | CTACTAGC | 0.0647
24 | ACGACCCC | -0.102
25 | GGCCCCCA | -0.21

Row | Sequence | PBM E-score
26 | CCCTCAGC | -0.0804
27 | AAATCACG | 0.205
28 | CCCGCGGC | 0.488
29 | GGCCTCAA | 0.0353
30 | AGCCCCGG | 0.303
31 | CATACATG | -0.163
32 | CTCCAAGC | -0.227
33 | GGGCGCGA | 0.238
34 | AGAGGAAG | -0.0644
35 | CAGCCTCC | -0.065
36 | ATGTTACG | -0.283
37 | ACTCGCAA | -0.0907
38 | TCCGCAGA | 0.258
39 | ATCCGCGC | 0.309
40 | AATCTCGG | 0.272
41 | GATCAACA | -0.178
42 | CGTGAGAC | -0.0337
43 | AAACCTGG | -0.0779
44 | CACGAGCA | -0.112
45 | AAAAGCTA | -0.0489
46 | ATAAAGTA | -0.0718
47 | CACCCTCA | -0.13
48 | AGTACCCA | -0.106
49 | CTGCTCCC | -0.0396
50 | TCCTTAAA | -0.366

Row | Sequence | PBM E-score
51 | GGGTTTTA | 0.0747
52 | ACGCCCGG | 0.311
53 | CGGGGCTA | -0.0766
54 | AAGTCTTG | -0.227
55 | CTTTACTC | -0.0439
56 | CCATTTAA | -0.0335
57 | ATCCTTGG | -0.0819
58 | AGAAAAAA | -0.103
59 | CACTCAGC | 0.0738
60 | GCACCGAA | -0.0086
61 | AATTCGAG | -0.223
62 | CAGGTCGA | 0.0254
63 | ACGAAACC | 0.124
64 | ACTTCTCG | 0.00113
65 | AACTCGTC | -0.0963
66 | GGATTCGA | 0.0995
67 | AAGTTGAG | 0.00223
68 | AAGACTGT | -0.263
69 | GGGACCGA | 0.238
70 | GGTATTAC | 0.225
71 | CGTACTGC | -0.206
72 | AATACCCA | 0.041
73 | AAACAAGG | -0.141
74 | GTAAGACA | -0.16
75 | TATTTAAA | 0.15

Row | Sequence | PBM E-score
76 | AATTGCAC | 0.0157
77 | AGTTCCAA | -0.0003
78 | AGGGGCAA | -0.0487
79 | AAGTGATG | -0.086
80 | AGTGTTGA | 0.0967
81 | CATTGGGG | -0.191
82 | CAGGGTTC | -0.0232
83 | ATCCATTC | 0.119
84 | AAAGCGAA | 0.0456
85 | AGTCTAGG | -0.294
86 | ATAGAAGC | -0.0746
87 | CGTAGAAC | -0.135
88 | AACTCACC | 0.0831
89 | ACAATCTC | -0.00834
90 | GAAAAATC | 0.0586
91 | GACGTTTA | -0.243
92 | CTGTCTAC | -0.218
93 | ACTGGCCG | 0.0679
94 | AGGATGTA | -0.0686
95 | GCAACGGA | 0.413
96 | GTTTGAGA | -0.226
97 | CAGTACCG | 0.185
98 | TAAGCAAA | -0.179
99 | CTTCTCCA | -0.225
100 | CATATCGG | 0.055

Row | Sequence | PBM E-score
101 | AGTTCCCA | 0.16
102 | AGGGTCCG | 0.263
103 | ACAGGTGA | -0.0799
104 | CAGGACGC | -0.158
105 | TGTGTCAA | -0.238
106 | CAAATATA | 0.0437
107 | CGCGATGC | -0.0841
108 | GTCCTGGA | -0.268
109 | AAAATCGG | 0.106
110 | ACCTGTAT | -0.287
111 | CCGCGTTC | 0.288
112 | GACGATGA | -0.121
113 | CAGGGGGC | -0.162
114 | AGCGGTAG | -0.224
115 | GCCCGCGA | 0.156
116 | GAGGGCAA | 0.0725
117 | TACTGGCA | -0.188
118 | CACCTAGA | -0.233
119 | TACTCGGA | 0.336
120 | AACCTACA | -0.0121
121 | AGGAACAC | 0.168
122 | ATGCGACG | 0.0842
123 | AGTCATTC | -0.0557
124 | CTTACGAA | -0.0993
125 | CTATGCAG | -0.111

Row | Sequence | PBM E-score
126 | AAAATTGT | 0.0897
127 | AAGAGGAT | -0.286
128 | ACAAGATC | -0.0126
129 | CCTGCTAA | -0.31
130 | GCGCACCA | 0.107
131 | AGCCGTAA | -0.0912
132 | TCTAAACA | -0.271
133 | GTATGTCA | -0.0199
134 | GAGCAGCC | -0.0446
135 | AGGTAGTA | 0.0166
136 | CAGCCCGA | 0.0851
137 | ACGCAGCG | -0.0522
138 | ACTCTTCC | 0.102
139 | AACACTGG | -0.175
140 | CGATGGAA | 0.0341
141 | ACAGCCAG | -0.0973
142 | ATTCATCA | 0.0396
143 | GAAGACCA | -0.0161
144 | ATAAGAGC | 0.111
145 | GAGTAGAA | -0.197
146 | ACGCGGCC | 0.0489
147 | CGGAAGGC | 0.369
148 | GATTTCGA | -0.031
149 | CAGAACAG | -0.0607
150 | AGAAAGAC | -0.147

Row | Sequence | PBM E-score
151 | GAAATGCC | 0.0864
152 | AGGCCGTA | 0.102
153 | CGCATGCA | 0.136
154 | AGCGGTGA | -0.164
155 | ACTAAGAG | -0.103
156 | AGTAATAA | -0.177
157 | GTACTGCA | -0.0762
158 | ACTGCTCT | 0.0618
159 | GTGTCAGA | -0.00535
160 | GACCAATC | -0.0364
161 | GACGTGCC | -0.0459
162 | TCCCTGCA | -0.0479
163 | AGGGGGTC | -0.385
164 | ATGGCCTA | -0.085
165 | ATTAACGG | 0.211
166 | GTTGAGAA | -0.169
167 | CTACATCC | 0.0693
168 | CATAAGTC | -0.0907
169 | CAGTACAC | -0.0683
170 | AATAGTGC | 0.13
171 | GGACGTCC | 0.0601
172 | CCCCAACC | 0.0118
173 | CCCGGGAG | 0.397
174 | CACAGGCG | -0.121
175 | AAGCCAAT | -0.0401

Row | Sequence | PBM E-score
176 | TAACAAAA | -0.0729
177 | TCGTTGCA | -0.19
178 | GGCCACAC | 0.0364
179 | ACATTGTA | -0.0269
180 | AATGCTTG | -0.214
181 | TTGCTAAA | -0.209
182 | GTCCGCCA | 0.138
183 | GCAGATGC | -0.125
184 | GCTCCCAA | -0.232
185 | AAACGTGA | -0.18
186 | AGCAGTTG | 0.0628
187 | GCCGCAGA | 0.0902
188 | CATTTCAG | -0.0756
189 | GCTCGCCA | 0.0845
190 | ACTGGTAA | -0.0923
191 | CAAGGGTA | -0.0929
192 | CGATTGTA | 0.176
193 | ATTGCCTC | -0.0698
194 | AACACACG | -0.0967
195 | TGCACCAA | -0.266
196 | TATGTTCA | -0.00143
197 | AGGCTGCC | -0.0546
198 | CATACACC | 0.0203
199 | AACGTTGA | -0.0102
200 | AGAGTTGC | 0.0698

Row | Sequence | PBM E-score
201 | GGAAACAC | 0.24
202 | ACGTGGCT | -0.229
203 | GCAAGGCA | -0.0599
204 | CTCGATTA | 0.0957
205 | CGGGCGTC | 0.193
206 | CGGAGAGC | 0.229
207 | AGCTAAAT | -0.165
208 | ATATGGCC | -0.00463
209 | GAAAACTA | 0.0457
210 | AAGCAAAG | -0.213
211 | AGATGCCC | 0.0401
212 | CTGTGTCA | -0.129
213 | GCAGTAGA | -0.197
214 | ACTTTCTG | -0.0394
215 | CGACGAAC | 0.0233
216 | CGCTTATA | 0.0823
217 | CGTCTTTC | -0.0524
218 | CTCTCCAC | -0.27
219 | ACGTTTCT | -0.289
